According to PubChem BioAssay AID624417 (National Center for Advancing Translational Sciences (NCATS), 2012):
Hit rate of the full screen: of about 410,000 compounds, about 6,400 (1.6%) were called active. This list was built around the results that the source calls inconclusive (neither active nor inactive); the mix of calls is not that of the screen. The call rests on the fitted dose curve; in most records, active means well fitted inhibition curve with a large enough effect; inconclusive means small, poorly fitted or top-dose-only effect; inactive means no such curve, though single readings can be large or run the other way. Where the call is inconclusive, the potency comes from a doubtful curve fit.

The compounds below were run against Glucagon-like peptide 1 receptor (Homo sapiens) (UniProt P43220) (assay: qHTS of GLP-1 Receptor Inverse Agonists (Inhibition Mode)). Conditions: HEK293 GLP-1R CRE-luciferase, luminescence, 24 h, GLP-1R form is constitutively active; activity change, negative = inhibition: at 38.3 µM (top of the series) unless noted.
Method in brief: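 Luminescence readout: a drop in cAMP-driven luciferase signal flags inverse agonism at a constitutively active GLP-1R stably expressed in HEK293. Compound exposure lasted 24 hr at 37 deg C, 5% CO2.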
Further: nearly all actives have a fitted effect of over 55% in size.
On the % scale 0 is the no-effect control and ±100 the full control effect; potency means the concentration at half of the fitted maximal effect; tags describe the fitted curve by direction and shape.

Chain of UniProt P43220 (P43220 whole entry, looked up): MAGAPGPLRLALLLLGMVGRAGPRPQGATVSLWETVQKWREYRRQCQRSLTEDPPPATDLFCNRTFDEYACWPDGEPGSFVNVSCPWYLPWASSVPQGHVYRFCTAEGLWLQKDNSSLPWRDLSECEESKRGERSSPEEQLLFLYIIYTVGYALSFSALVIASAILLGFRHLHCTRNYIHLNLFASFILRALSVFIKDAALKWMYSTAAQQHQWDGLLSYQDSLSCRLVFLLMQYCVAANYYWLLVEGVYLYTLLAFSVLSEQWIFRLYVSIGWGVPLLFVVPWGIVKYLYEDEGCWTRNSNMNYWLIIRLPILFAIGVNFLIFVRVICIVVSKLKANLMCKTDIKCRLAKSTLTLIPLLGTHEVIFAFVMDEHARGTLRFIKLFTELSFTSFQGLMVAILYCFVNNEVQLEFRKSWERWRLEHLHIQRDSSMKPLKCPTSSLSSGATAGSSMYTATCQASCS

Potency, inactive:
CCCCNc1c(-c2ccc(SC(C)CC)c(OC)c2)nc2ccc(Cl)cn12 (stereo not given), Cc1ccc(C2CC(=O)n3nc(-c4ccc(F)cc4)nc3S2)cc1 (stereo not given), Cc1cc(SCC#N)n2nc(C)c(-c3ccc(Cl)cc3)c2n1, COc1ccc(NC(=O)CCS(=O)(=O)c2cc3c(cc2C)NC(=O)CO3)cc1Cl, Cc1ccccc1NC(=O)Cn1c(=O)n(CCC(=O)N2CCc3ccccc3C2)c(=O)c2ccccc21, CCOC(=O)N1CCN(C(=O)COC(=O)c2ccc([N+](=O)[O-])cc2Cl)CC1, COc1ccc([C@H]2CC(=O)C=C(c3cc(C)ccc3F)C2)cc1, O=C(CSc1ncc2c(n1)-c1ccccc1N(Cc1ccc(Cl)cc1)S2(=O)=O)c1ccc(Cl)cc1, Cc1cn2c(=O)cc(COc3ccc(NC(=O)c4ccc(C(C)(C)C)cc4)cc3)nc2s1, Cn1c(/C(C#N)=C(\O)c2cc(Cl)sc2Cl)nc2ccccc21, CCN(C(=O)c1sc2nc3n(c(=O)c2c1C)CCCC3)c1ccccc1F

Potency, inconclusive:
CC1CCCCN1C(=S)NC(=O)c1ccco1 (stereo not given) 11.2 µM [inhibitor, single point], CC1CN(C(=O)CCC(=O)NCc2ccc(F)cc2)c2ccccc2S1 (stereo not given) 12.6 µM [inhibitor, single point], COc1cccc(CC2(CO)CCCN(Cc3ccc(C)s3)C2)c1 (stereo not given) 31.6 µM [inhibitor, partial curve, poor fit], O=C(Cn1ncc2c1-c1ccccc1OC2)Nc1cccc(Cl)c1 11.2 µM [inhibitor, partial curve, poor fit], CCN1CCCc2cc(CN(CCN3CCOCC3)C(=S)Nc3cc(F)cc(F)c3)ccc21 5.01 µM [inhibitor, partial curve], CCCN(CCC)Cc1c(C(=O)N/N=C/c2cccs2)nnn1-c1nonc1N 28.2 µM [inhibitor, single point], O=C(CSc1nc(C2CCCCC2)nc2ccccc12)N1CCCC1 11.2 µM [inhibitor, single point], CCC1CN(C(=O)N2CCC(C(=O)NCCCc3ccccc3)CC2)c2cc(C)ccc2O1 (stereo not given) 28.2 µM [inhibitor, single point], O=[N+]([O-])c1ccc(-c2c(-c3ccccc3)ncc3ccc(F)cc23)cc1 28.2 µM [inhibitor, single point], O=C(CNC(c1ccccc1)c1ccccc1)Nc1cc([N+](=O)[O-])ccc1Cl 10 µM [inhibitor, partial curve, poor fit], Cc1ccc(OCC(COCc2ccccc2)NC(C)C)cc1 (stereo not given) 10 µM [inhibitor, partial curve, poor fit], Cc1cccc(NC(=O)c2nc[nH]c2C(=O)N[C@@H](CC(C)C)C(=O)OCc2ccccc2)c1 10 µM [inhibitor, partial curve, poor fit], O=C(CN1C(=O)NC2(CCOc3ccccc32)C1=O)Nc1cccc([N+](=O)[O-])c1 (stereo not given) 28.2 µM [inhibitor, single point], COc1cccc(C(C)(O)c2nc(-c3cccc(C(C)C)c3)cs2)c1 (stereo not given) 28.2 µM [inhibitor, single point], CCCOC(=O)c1ccc(Oc2cn[nH]c2-c2ccc(O)cc2O)cc1 7.08 µM [inhibitor, partial curve, poor fit], CC(C)CCOc1ccc(C(=O)N2CCN(c3ncccn3)CC2)cc1 31.6 µM [inhibitor, partial curve, poor fit], COC(=O)C1=C(N)Oc2cc(C)n(CC3CCCO3)c(=O)c2C1c1ccc(Cl)cc1 (stereo not given) 8.91 µM [inhibitor, single point], COc1cccc(Nc2nc(NCC3CCCO3)c3ccccc3n2)c1 (stereo not given) 10 µM [inhibitor, partial curve, poor fit], COc1cccc(OCC(O)CNC(C)c2ccccc2)c1 (stereo not given) 14.1 µM [inhibitor, partial curve, poor fit], Fc1ccccc1C(NCCc1ccc(Cl)cc1)c1nnc(-c2ccccc2)o1 (stereo not given) 12.6 µM [inhibitor, partial curve, poor fit], CCN1C(=O)[C@@H]2[C@@H](c3ccc(-c4ccc5c(c4)OCO5)cc3)N3CCCC[C@@]3(C(=O)OC)[C@@H]2C1=O 10 µM [inhibitor, partial curve, poor fit], CCOC(=O)c1[nH]c2c(c1-c1ccccc1)C(=O)CC(c1ccccc1)C2 (stereo not given) 1.58 µM [inhibitor, full curve, poor fit], CC(C)c1ccccc1N=C1SCCN1C1CCS(=O)(=O)C1 (stereo not given) 10 µM [inhibitor, partial curve, poor fit], CCCCCCC(c1c(C)n(C)n(-c2ccccc2)c1=O)c1c(C)n(C)n(-c2ccccc2)c1=O 8.91 µM [inhibitor, partial curve, poor fit], CC(OC(=O)C1CC1)C(=O)Nc1cc(Cl)cc(Cl)c1 (stereo not given) 28.2 µM [inhibitor, single point], O=C(COc1cccnc1[N+](=O)[O-])N1N=C(c2ccc(Cl)cc2)CC1c1ccco1 (stereo not given) 28.2 µM [inhibitor, partial curve, poor fit], COc1cc2c(cc1OC)CN(C(=O)/C=C/c1cccs1)CC2 2.24 µM [inhibitor, partial curve, poor fit], CN(Cc1ccccc1)C(=O)CN(c1ccc(F)cc1)S(=O)(=O)c1ccc2c(c1)OCCO2 25.1 µM [inhibitor, single point], O=C(NCc1ccc(Cl)c(Cl)c1)C1CCCC1 2.82 µM [inhibitor, partial curve], CCC(c1nnnn1Cc1ccco1)N(CCc1ccccc1)Cc1cc2cccc(C)c2[nH]c1=O (stereo not given) 10 µM [inhibitor, partial curve, poor fit], COc1ccc(S(=O)(=O)N(CC(=O)Nc2ccc(S(=O)(=O)N3CCOCC3)cc2)Cc2ccc(F)cc2)cc1 3.55 µM [inhibitor, single point], COc1cc2sc(-c3ccccc3OC)c(-c3ccc(OCCN4CCOCC4)cc3)c2cc1OC 28.2 µM [inhibitor, single point], CCCCC(=O)NC(Nc1cc(C)ccn1)(C(=O)OCC)C(F)(F)F (stereo not given) 20 µM [inhibitor, partial curve, poor fit], CN(C)c1ccc(C(CNC(=O)c2ccc(C(C)(C)C)cc2)N2CCCC2)cc1 (stereo not given) 2.51 µM [inhibitor, partial curve, poor fit], Cc1ccc(OCc2cc(C(=O)N(C)Cc3cnc4ccccn34)no2)cc1C 12.6 µM [inhibitor, partial curve], CCOC(=O)CNC(=O)C1CCCc2c1[nH]c1ccc(Cl)cc21 (stereo not given) 12.6 µM [inhibitor, partial curve, poor fit], CC(C)c1ccc(NS(=O)(=O)c2ccc3c(c2)oc(=O)n3C)cc1 28.2 µM [inhibitor, single point], CN(C)c1ccc(CC(=O)N2CCCC(c3cc(C(=O)Nc4ccccc4)no3)C2)cc1 (stereo not given) 3.98 µM [inhibitor, partial curve, poor fit], Cc1cccc(OCC(=O)Nc2ccc(S(=O)(=O)N3CCCC3)cc2)c1 28.2 µM [inhibitor, single point], Cc1ccc(CCNC(=O)c2cc(-c3ccccc3)n[nH]2)cc1 31.6 µM [inhibitor, single point], COc1ccc2nc(C(F)(F)C(F)(F)F)c(C#N)c(N)c2c1 7.08 µM [inhibitor, partial curve, poor fit], CCCCN1CC(COc2ccccc2)Oc2cccc(F)c2S1(=O)=O (stereo not given) 10 µM [inhibitor, partial curve, poor fit], CC(C)c1ccc(OCC(=O)N2CCN(C(=O)c3ccco3)CC2)cc1 11.2 µM [inhibitor, single point], O=c1oc2ccccc2c(NC2CCCCC2)c1NS(=O)(=O)c1ccc(F)cc1 12.6 µM [inhibitor, partial curve, poor fit], COc1ccc(N2CCN(C(=O)c3ccc(N4C(=O)NC5CC4(C)Oc4ccccc45)cc3)CC2)cc1 (stereo not given) 14.1 µM [inhibitor, single point], COc1cc(OC)c2c(-c3cccc(-c4ccc(NC(C)=O)cc4)c3)cc(=O)oc2c1 0.501 µM [inhibitor, full curve, poor fit], O=C(Nc1ccccc1)c1ccc(=O)n(Cc2ccc(F)c(F)c2)c1 31.6 µM [inhibitor, single point], OC1CCC(NC(=S)Nc2ccc(SC(F)F)cc2)CC1 (stereo not given) 22.4 µM [inhibitor, single point]

Activity change, negative = inhibition, inconclusive:
O=C1/C(=C/c2ccc(F)cc2)SC(=S)N1NS(=O)(=O)c1ccccc1 -71.6% [inhibitor]
